Measurements taken from article PMC4336329 (PLoS ONE, 2015).
Out of some 310,000 compounds screened, about 14,000 (4.5%) showed an effect of 50% or more. Effects have a minus sign here. The list shows a part of the results.

What follows are compounds tested against human ether-à-go-go-related gene (hERG) potassium channel (human, UniProt Q12809) (assay: primary screen, population patch clamp on CHO cells stably expressing hERG).
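Note: peak tail current of the secondary pulse compared with the same well before compound.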

Chain of human ether-à-go-go-related gene (hERG) potassium channel (Q12809 whole entry, looked up): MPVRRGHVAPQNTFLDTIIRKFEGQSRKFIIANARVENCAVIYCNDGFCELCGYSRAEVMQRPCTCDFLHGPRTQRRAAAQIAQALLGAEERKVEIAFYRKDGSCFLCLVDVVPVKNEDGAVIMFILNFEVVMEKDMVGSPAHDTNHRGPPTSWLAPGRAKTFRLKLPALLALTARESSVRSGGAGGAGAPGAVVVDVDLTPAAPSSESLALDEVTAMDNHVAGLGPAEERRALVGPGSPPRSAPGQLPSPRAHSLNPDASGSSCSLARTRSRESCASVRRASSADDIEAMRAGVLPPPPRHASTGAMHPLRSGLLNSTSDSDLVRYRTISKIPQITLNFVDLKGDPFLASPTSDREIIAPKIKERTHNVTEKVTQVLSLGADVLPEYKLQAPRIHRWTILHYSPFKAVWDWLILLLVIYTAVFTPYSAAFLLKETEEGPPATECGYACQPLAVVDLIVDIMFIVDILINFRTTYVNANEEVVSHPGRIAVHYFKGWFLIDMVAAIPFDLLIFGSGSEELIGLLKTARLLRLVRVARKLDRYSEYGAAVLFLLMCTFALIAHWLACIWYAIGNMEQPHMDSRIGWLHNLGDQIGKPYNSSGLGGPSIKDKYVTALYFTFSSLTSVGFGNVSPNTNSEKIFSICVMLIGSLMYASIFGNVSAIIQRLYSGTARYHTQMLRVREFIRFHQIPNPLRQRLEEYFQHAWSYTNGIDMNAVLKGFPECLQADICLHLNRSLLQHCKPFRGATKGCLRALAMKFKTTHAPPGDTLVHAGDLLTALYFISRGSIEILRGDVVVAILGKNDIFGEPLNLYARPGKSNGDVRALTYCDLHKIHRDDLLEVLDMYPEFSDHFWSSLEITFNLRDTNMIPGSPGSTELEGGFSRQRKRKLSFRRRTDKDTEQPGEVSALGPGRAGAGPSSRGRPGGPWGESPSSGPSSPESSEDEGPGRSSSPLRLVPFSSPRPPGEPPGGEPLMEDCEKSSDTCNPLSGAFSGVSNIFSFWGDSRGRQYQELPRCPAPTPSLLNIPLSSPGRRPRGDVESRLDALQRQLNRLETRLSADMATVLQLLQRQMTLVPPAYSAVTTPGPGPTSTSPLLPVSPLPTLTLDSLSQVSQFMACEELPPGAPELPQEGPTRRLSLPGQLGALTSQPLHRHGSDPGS

SMILES	hERG current change (%, negative = inhibition) at 10uM
Cc1cc2cc(CN(CC3CCCO3)C(=O)c3cnccn3)c(=O)[nH]c2cc1C (stereo not drawn)	-6.24%
Cn1nc(-c2ccccc2)c(CO)c1Oc1ccc(F)cc1	-21.4%
COc1ccc(S(=O)(=O)N2CCOCC2)c(Cl)c1Cl	-18.3%
CCc1ccc(C(C)NC(=O)C2CCCO2)cc1 (stereo not drawn)	2%
N#Cc1ccsc1NC(=O)C1CCN(S(=O)(=O)c2cccs2)CC1	-20.2%
COc1cc(C2C(C(=O)c3ccc(C)o3)=C(O)C(=O)N2Cc2cccnc2)ccc1O (stereo not drawn)	10.9%
Cc1ccc(NC(=O)COC(=O)C2CCN(c3ccc(C(F)(F)F)cn3)CC2)cc1	-1.26%
Br.Cc1ccc(Nc2nc(-c3ccc(S(=O)(=O)N4CCOCC4)cc3)cs2)cc1Cl	4.43%
CN(Cc1nc(Cc2cccc(F)c2)no1)CC1COCCO1 (stereo not drawn)	10.7%
CC12CCC(C(=O)Nc3nccs3)(OC1=O)C2(C)C (stereo not drawn)	6.58%
O=C(c1cccc(N2CCCC2=O)c1)N1CCN(c2ccccc2)CC1	10.9%
COc1ccccc1NC(=O)Cc1coc2cc(C)ccc12	-13.1%
COc1ccc(CCN2CC(C(=O)OCC(=O)NC(C)c3cccc(Cl)c3)CC2=O)cc1OC (stereo not drawn)	-8.25%
COC(=O)c1c(NC(=O)C2CCCCC2C(=O)O)sc2c1CCCCC2 (stereo not drawn)	-10.7%
CCCn1nc(-c2ccccc2)c2nc3ccccc3nc21	-7.16%
COc1ccc(-c2nc3c(-c4ccccc4)cnn3cc2C)cc1F	9.32%
COCCn1c(SCC(=O)N2CCCC2)nc2c([nH]c3ccccc32)c1=O	-61.3%
CC(=O)c1sc2ccccc2c1OC(=O)c1ccco1	12.6%
O=C(O)CCSc1nnnn1-c1ccccc1	-1.42%

SMILES	hERG current change (%, negative = inhibition) at 10uM
Nc1ccc(Br)c[n+]1Cc1cccc2cccnc12.[Br-]	-51.6%
CSCCC(NC(=O)c1ccccc1Cl)C(=O)NNC(=O)c1ccccc1O (stereo not drawn)	8.71%
NC(=O)c1cc([N+](=O)[O-])ccc1NCc1cccc(N)c1	-5.66%
Cc1cc(Cl)ccc1NC(=O)CN1C(=O)NC2(CCCc3ccccc32)C1=O (stereo not drawn)	-1.38%
CCn1ccc(C(=O)Nc2ccc(Cl)cn2)n1	-18.3%
Nc1nc(-c2cccnc2)nn1C(=O)Cc1ccccc1	-15%
Cn1cccc1Cc1nnc(SCC(=O)Nc2ccc3c(c2)OCCO3)n1CCc1ccccc1	-15.8%
Cc1ccc(C(=O)N2CCCC2)cc1Br	17.9%
Cc1ccc(NC(=O)C(=Cc2ccc(C(=O)O)cc2)C(=O)Nc2ccc(C)cc2C)c(C)c1	-9.22%
O=C(Nc1sc2c(c1C(=O)O)CCCCC2)c1cccnc1	16.7%
Cc1ccc(S(=O)(=O)/C(C#N)=C/c2c(N3CCCCC3)nc3ccccn3c2=O)cc1	-29.9%
O=C(CSc1nc2ccsc2c(=O)n1Cc1ccccc1)NCc1ccco1	-20.2%
O=C(Nc1ccc(S(=O)(=O)Nc2nccs2)cc1)c1ccc(F)cc1	-5.56%
COC(=O)c1cc(C)nc2c1C(=O)C(=O)C=C2N1CCOCC1	-2.1%
COc1cc(C(=O)OCC(=O)N2CCCC2)cc2c1OCCO2	6.01%
COc1ccccc1CNS(=O)(=O)c1ccc(C)cc1	7.04%
Cc1cc2occ(CC(=O)N(C)CC(=O)Nc3ccc(F)cc3)c2cc1C	-9.51%
CCOc1cc(NC(=S)NCCCN2CCOCC2)c(OCC)cc1NC(=O)CC(C)C	6.63%
COc1cc(Cl)ccc1NC(=S)N(CCN1CCOCC1)C1CCN(C(C)=O)CC1	5.53%

SMILES	hERG current change (%, negative = inhibition) at 10uM
Cc1cc(S(=O)(=O)N2CCN(c3ccc(F)cc3)CC2)c(C)s1	-1.39%
O=C(Nc1c(C(=O)C2CC2)oc2ccccc12)c1ccc(Cl)cc1	18.7%
S=c1[nH]cnc2scc(-c3ccccc3)c12	23.4%
CCN(CC)S(=O)(=O)c1ccc2[nH]c(=O)cc(C(=O)NCc3ccccc3)c2c1	12.4%
CCC1(c2ccc(F)cc2)NC(=O)N(CC(=O)Nc2ccccc2Cl)C1=O (stereo not drawn)	-0.572%
Cc1ccnc(NC(=O)CCC(=O)N(CC(=O)NC2CCCCC2)CC2CCCO2)c1 (stereo not drawn)	2.1%
CCN(CC)S(=O)(=O)c1ccc(=O)n(CC(=O)N2CCCc3cc(C)ccc32)c1	-30.2%
Cc1cc(C(=O)OCC(=O)Nc2ccccc2F)c(C)o1	1.27%
Cc1ccc(O)c(NC(=O)C2CCCN2C(=O)OCc2ccccc2)c1 (stereo not drawn)	8.29%
COC(=O)c1nnn(-c2nonc2N)c1CN1CCc2ccccc21	4.57%
Oc1c(Br)cc(/C=N/n2c(-c3ccccc3)n[nH]c2=S)c(Br)c1O	18.3%
CCCc1ccc(OCC(O)CN2CCc3ccccc3C2)cc1.Cl (stereo not drawn)	-71.5%
O=C(Nc1ccc(F)cc1)Nc1ccccc1F	19.8%
CCCOc1ccc2cc(C(=O)NCc3ccccc3)c(=O)oc2c1	12.3%
CCCNC(=O)C1CCCN(S(=O)(=O)c2ccc3c(c2)CC(C)N3C(=O)C2CC2)C1 (stereo not drawn)	4.15%
Cc1ccc(Sc2ccc(N)cc2C#N)cc1	-39%
Cc1cccc(N2CCN(C(=O)c3ccc(CNc4c(N5CCC(C)CC5)c(=O)c4=O)cc3)CC2C)c1 (stereo not drawn)	-10.4%
CCC(C)Sc1nnc(-c2c[nH]c3ccccc23)n1CCOC (stereo not drawn)	-15.4%
S=C(c1ccc(-c2ccc(Cl)c(Cl)c2)o1)N1CCOCC1	3.22%
